Over roughly 2,300 sequences, “median log2 fold change of GCK-ALFA target abundance (FLAG IP / Myc IP barcode read proportion)” has its median near 0.095; the lowest 2% begin near -0.47. Some of the results follow.
B1: LC3A_3_1368 (protein)
chain: MEEEIEKTLKKLKELGKSEETLEAIRRAAEALLEKGYEEALKTFLELMLELAHLPDELLLWMAEEVLAAVEAGELSEEELIEFIKREATVARNEAEIEEL
B2: LC3A_3_1639 (protein)
chain: MEEKIEERKKLLKEAGHSEEVIEAFEETAELLKEKGYYEALETLIEEMEKLKDLPDEILLAMLEEVKAVVKEPDKTEEEVIKAIKEIARVARNEGEIIEL
B3: LC3A_free_39_2255 (protein)
chain: SMEEIEKIRKELEKEAAKTSPEVREAVLALADLLKDDPELLKKLLELLKKAIEKGPEKVKDLGALAAEAVARIKAGEDPKEVAEEMIKLGENAVEIEEID
B4: LC3A_28_906 (protein)
chain: GAALAQLEAALAQVRAAVAAGDTSPLVLTITAPSDQENTDKFLEGLEKLAEEASKLPGVTIVIDIDESVSQENKDKIIDKAEELEEKYPNVTVIIALPES
B5: LC3A_3_1497 (protein)
chain: REELLEEMRKVLEERGASEEQIEEVLEAAERILEKGLEETVRTFIELVKENKDLSPEKILTAVLITRDYVEEENLDEESAIEKTKQILEDVKEIEEIEEE
B6: LC3A_free_39_2238 (protein)
chain: SKEEIEKLIKEIAEESGLEYEEVKKKIEEIQKVAGLTDEQILEIVKAILEAVKAGADGKEILEESLKIAKELKAEGKTPEEIKEAILEYIEDMRNLVPLD
B7: LC3A_28_867 (protein)
chain: MTIEERVAAARAQAEADAAEGEPIVITVEVTSEMSLEEAEELLRRVLDIARAFVAETGLPVHIVVDHDGDPEKLDAILDLADAAEAEDPRITVYVAISEE
B8: LC3A_13_348 (protein)
chain: TVTLTAETPEEALEKGTAALEANPGQTVNLTVTVRDEEEADKVAEVVKKLIDLAIEKGNALNVTLKGKRDLVLYAAVEIGSYIFEHLGQADVTVSTEEVE
B9: LC3A_28_1206 (protein)
chain: SATKKAAEAALKEAKAAAAAGEEKVIVLEVVGGVTEEETEYVIKKLEEIAKIAAENPKLSILIDISGGVAEEHQDKIIDKAEELEEKYPNVNIIIALEEE
B10: LC3A_3_1714 (protein)
chain: MEELLKEAREILEKQGRSEETIKAALEALKALLEKGYEEAAKTLIELLKEMKDLSDEILLNFFEDVKEYVETEDASEEETIKFIKEEARIARSEQEIEEL
B11: LC3A_3_1854 (protein)
chain: MEEIIEEALEHLRKLGRSEETIEAARELLEELAERGFEEAAKTFLEELKKLENVSDEDLLAMFEELLRALREEDLNEEEAIELIKSEARVLLNDLEIEEL
B12: LC3A_62_2045 (protein)
chain: MWRAVVEVDILAKDEEAAKKIAEEIKEMLEKLKKEDPRISFEVKLDLENKFVEVTVTYEAETKEEAEAAAEKILKALDELLEKNKDLIKASLISREFEKL
B13: LC3A_147_513 (protein)
chain: MYEVDVDILVKKEGKEKVLKELKEILEELKEEGYKVEVLEEKIEEEGDEVFIHIKVRIEAETEEEAKEAVNRFISKLEELEEKYKDLIKGTLISVEEIEP
B14: LC3A_28_1067 (protein)
chain: NALEAQLAAARAEARAAAAAGEEVVVTLTLDEDSTEADLEAVLATMRELAAIAAGSPALTIVVDVDNPNAEEWTTRIAEEGDRLEAENPNVTVLIALSEE
B15: LC3A_28_840 (protein)
chain: SKTEEANKEALAKAKEAAAAGKQEVIELKVYDASTQEAVDNTIKTLNEIAEILSSLPNQTILILFENPIPQEARDNIIDAAEEIEKKYPNVTVIIALPEE
B16: LC3A_17_594 (protein)
chain: MEEIKKKLEELLKEAEALIKKLAELRPEAAPEAKKKLKEAKKLLEEGKLKEAAKTLAELADYIADVFDELEEEGIEEAAPLEMEANGIEVEAELLLLKLD
B17: LC3A_28_1286 (protein)
chain: SEIEENLKKALEEAKKAVAEGKPAVITIKVPGNATEEEIEKVKEAMKEIAEILKDVKDQAIVIDVDGGVKEEHIDKLADAAEEIEKKYPNVTVIIALDEE
B18: LC3A_3_1796 (protein)
chain: MEEKLKELLEELREAGKSEETIEAARKTLNALIEKGYEKAFETLIEELRELKDIPDEILLDLLQEVLELIENEDLSEEELTEEIKELARLARLESEIEEL
B19: LC3A_free_46_2313 (protein)
chain: VVAEIEIDLLHKDEEVLKKAVEEIVKEIKEIAEKYGLELEIEIEFSKLEDGDYYARIKITLKGETLEDVQAAVNEIIEKIDEIAEKYDVSYIISVEIIEE
B20: LC3A_28_943 (protein)
chain: MSIEEDIEAALKEAKEAKKKGEPAVITITVKGTATQEEVDAVIKTIKEIAELLKDIKGSAIIVDIEAGVAQEHVDALMDTLDEIEKKYPNINAIAALDED
B21: LC3A_3_1727 (protein)
chain: MEERLARARERLRALGLSPEVFEAALATIEALLEKGLEEQAERLLEALERNRDADPERLLAWLEDIRRLLETDKSSKEELAKKVEEEIRAFENDAEIEEL
B22: LC3A_17_546 (protein)
chain: KEEIKKRLEELLKELEKLVEKLKPYDPEAAKKLKERLERARKLLEEGKLKEAAEELIEAAEELADAWEKLEPKLGTEASVQSMEANGIELEAIGLLLELE
B23: LC3A_28_1111 (protein)
chain: MDNRELNEKALKEAKEAAAKGEPAVITLHVTEEDTEEDIEEFIETLREIAELLKDVEGAAIIIDIDGKLPQEHLDKIADEAEEIEKEYPNITVIIALDEE
B24: LC3A_132_241 (protein)
chain: SEELYEKLKKEVDALLDALAANKDNLAAVKKLVAELEKLLEKAEKELSPEQVEELARDTADRLDALREEAEAAGKAEVASLLDNAAMYADGIAIEAELKL
B25: LC3A_28_747 (protein)
chain: SEIEKQLKEVLEEARRAAERGEPVVLTIKVSGTATQEDIEKVMKALEEIAEILKDVPDVAIIIDISGTLKQEHINKLLDKAEEIEKKYPNVTVIFALDEE
B26: LC3A_3_1586 (protein)
chain: LEEKKKEMLQALKEAGHSEETIKAVEELLKKLEEKGYEEAAKEFIELVLENIDLSSELLLEVALELLELVEAGKLSEEEIIEKARELFRVARSEQEIIEL
B27: LC3A_free_2_2170 (protein)
chain: ATYRVEVDVLGPAAGVAALFDVLAAHGLTVTVEYEDGTVVEGTAAEHAARMRELAAKGEEVLVRITFETDRATAEAVSAELDAVAEATGVAALIDIEEIG
B28: LC3A_free_8_2461 (protein)
chain: DNQKLVDTAVEKLEELEEELVKKAKELGLSELDILDLELEIGSAIAEVISNVDKSKEEIIKTTKEELEDIIKYAKELGEEVAELAKKKSEEILKELEKLK
B29: LC3A_28_694 (protein)
chain: SAIDAQLAAAEAAVAAAVAAGEDALVEFTVSGTATAADIDRLLAAVRAMAERMAAVGKLYVVVDLDGDVSAAHQQRLADGLDALEAEYPHLSAVIALEED

The binders below were run against MAP1LC3A, Q9H492 (assay: median log2 fold change of GCK-ALFA target abundance (FLAG IP / Myc IP barcode read proportion) (log2 ratio); each designed protein is fused to an ALFA-tag nanobody in HEK293 cells to bring the named protein to FLAG-tagged glucokinase (GCK); Myc marks an untargeted standard; higher = target protein stabilised (more abundant)). Settings: target protein: 3xFLAG-MCP-GCK-ALFA reporter; HEK293 landing pad (RPLP).
In short: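 Binders fused to an ALFA nanobody were recombined as a library into HEK293 landing-pad cells, which were induced with 2 μg mL^−1 doxycycline and then transfected to express a FLAG-tagged target and a Myc-tagged standard. After 48 h, circular RNA barcodes recovered by anti-FLAG and anti-Myc immunoprecipitation of lysates were reverse transcribed, amplified and sequenced. Each binder's target abundance is the median log2 ratio of FLAG to Myc barcode read proportions, from barcodes present at ≥10^−7 in both replicates, binders carrying ≥3 barcodes per replicate, a 10^−6 pseudocount and pooled replicates.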

B1 and B2 are within 0.2 log units of each other in “median log2 fold change” value: 0.294 for the first, 0.269 for the second.

Going from B3 to B4, the “median log2 fold change” value falls from 0.265 to -0.0833.

B5 and B6 are within 0.2 log units of each other in “median log2 fold change” value: 0.197 for the first, 0.0312 for the second.

First: B7
Second: B8
The “median log2 fold change” value of the first is lower: -0.153 for the first, 0.223 for the second.

Compared with B9, B10 is higher in “median log2 fold change” value: -0.198 for the first, 0.151 for the second.

B11 and B12 are within 0.2 log units of each other in “median log2 fold change” value: 0.154 for the first, 0.0247 for the second.

B13 and B14 are within 0.2 log units of each other in “median log2 fold change” value: -0.261 for the first, -0.0745 for the second.

B15 and B16 are within 0.2 log units of each other in “median log2 fold change” value: -0.00875 for the first, 0.0502 for the second.

B17 and B18 are within 0.2 log units of each other in “median log2 fold change” value: -0.187 for the first, -0.109 for the second.

Going from B19 to B20, the “median log2 fold change” value falls from 0.141 to -0.355.

B21 and B22 are within 0.2 log units of each other in “median log2 fold change” value: 0.248 for the first, 0.0598 for the second.

B23 and B24 are within 0.2 log units of each other in “median log2 fold change” value: -0.0813 for the first, 0.00601 for the second.

Going from B25 to B26, the “median log2 fold change” value rises from -0.23 to 0.148.

B27 and B28 are within 0.2 log units of each other in “median log2 fold change” value: -0.0528 for the first, -0.224 for the second.

B29 was tested, and the “median log2 fold change” value was -0.415.
